Measured values reported in the antibiotic and cytotoxicity screens of Wong et al. (2023).
The list shows a part of the results.

Assays:
HSkMC = human skeletal muscle cells; assay: cytotoxicity call (relative viability < 0.9); settings: 10 µM
HepG2 = assay: cytotoxicity call (relative viability < 0.9); settings: 10 µM
S. aureus RN4220 = assay: growth inhibition call (relative growth <= 0.2); settings: 50 µM

| Compound | cytotoxicity call (HSkMC) | cytotoxicity call (HepG2) | growth inhibition call (S. aureus RN4220) |
| --- | --- | --- | --- |
| C[C@@H]1CN([C@@H](C)CO)C(=O)c2cc(NS(C)(=O)=O)ccc2O[C@@H]1CN(C)S(=O)(=O)c1cn(C)cn1 | inactive | inactive | inactive |
| N[C@@H](C(=O)O)c1ccc(O)c(C(=O)O)c1 | inactive | inactive | inactive |
| CCC(=O)Nc1ccc2c(c1)C(=O)N(C)C[C@H](OC)[C@@H](C)CN(C(=O)CN1CCOCC1)[C@@H](C)CO2 | inactive | inactive | inactive |
| Cc1noc(C)c1NC(=O)Nc1cccc2c1O[C@H](CN(C)C(=O)NC(C)C)[C@H](C)CN([C@@H](C)CO)C2=O | inactive | inactive | inactive |
| COc1cccc(NC(=O)N2C[C@@H](O)COC[C@H]3O[C@H](CC(=O)NCCCN4CCOCC4)CC[C@@H]32)c1 | inactive | inactive | inactive |
| Cc1noc(C)c1NC(=O)Nc1ccc2c(c1)CC(=O)N([C@@H](C)CO)C[C@H](C)[C@H](CN(C)Cc1ccc(Oc3ccccc3)cc1)O2 | inactive | inactive | inactive |
| C[C@@H]1CN([C@@H](C)CO)C(=O)c2cc(NC(=O)Nc3cccc4ccccc34)ccc2O[C@@H]1CN(C)C(=O)NC1CCCCC1 | inactive | inactive | inactive |
| C[C@@H]1CCCCO[C@H](CN(C)CC2CCCCC2)[C@H](C)CN([C@H](C)CO)C(=O)c2cc(NC(=O)Nc3ccc(C(F)(F)F)cc3)ccc2O1 | active | active | inactive |
| C[C@@H]1CN([C@H](C)CO)C(=O)c2cc(C#CC3(O)CCCC3)cnc2O[C@@H]1CN(C)S(=O)(=O)c1ccc(F)cc1 | inactive | inactive | inactive |
| C[C@@H]1CCCCO[C@@H](CN(C)C(=O)C2CCCCC2)[C@@H](C)CN([C@H](C)CO)C(=O)c2cc(NC(=O)c3ccncc3)ccc2O1 | inactive | inactive | inactive |
| Cc1ccc(S(=O)(=O)Nc2ccc3c(c2)C(=O)N([C@H](C)CO)C[C@@H](C)[C@H](CN(C)S(C)(=O)=O)OCCCC[C@@H](C)O3)cc1 | inactive | inactive | inactive |
| COc1ccc(S(=O)(=O)N(C)C[C@@H]2Oc3ncc(-c4ccncc4)cc3C(=O)N([C@@H](C)CO)C[C@@H]2C)cc1 | inactive | inactive | inactive |
| COc1ccc(CN(C)C[C@@H]2OCCCC[C@H](C)Oc3ccc(NC(=O)Nc4cccc5ccccc45)cc3C(=O)N([C@H](C)CO)C[C@H]2C)cc1 | active | active | inactive |
| COc1cccc(S(=O)(=O)N(C)C[C@H]2OCc3cn(nn3)CCCC(=O)N([C@@H](C)CO)C[C@H]2C)c1 | inactive | inactive | inactive |
| COc1ccc(NC(=O)N(C)C[C@@H]2OCCCC[C@H](C)Oc3ccc(NC(=O)c4ccccc4)cc3C(=O)N([C@H](C)CO)C[C@@H]2C)cc1 | inactive | inactive | inactive |
| C[C@H]1CN([C@@H](C)CO)C(=O)c2cc(NC(=O)C3CC3)ccc2O[C@@H]1CN(C)S(=O)(=O)c1cn(C)cn1 | inactive | inactive | inactive |
| Cc1noc(C)c1NC(=O)N(C)C[C@H]1Oc2ccc(NC(=O)Cn3cnnn3)cc2CC(=O)N([C@@H](C)CO)C[C@H]1C | inactive | inactive | inactive |
| CC(C)n1cnnc1[C@@H](C)N | inactive | inactive | inactive |
| C[C@@H]1CN([C@H](C)CO)C(=O)c2cc(NC(=O)c3ccccc3)ccc2O[C@@H](C)CCCCO[C@@H]1CN(C)C(=O)CCC(F)(F)F | inactive | inactive | inactive |
| C[C@@H]1CN([C@@H](C)CO)C(=O)CCCn2cc(nn2)CO[C@@H]1CN(C)C(=O)Nc1cccc(C(F)(F)F)c1 | inactive | inactive | inactive |
| COc1ccc(S(=O)(=O)Nc2ccc3c(c2)C(=O)N([C@H](C)CO)C[C@@H](C)[C@H](CN(C)C(=O)NC2CCCCC2)OCCCC[C@@H](C)O3)cc1 | inactive | inactive | inactive |
| C[C@@H]1CN([C@@H](C)CO)C(=O)c2cccc(NC(=O)C3CCCCC3)c2O[C@H]1CN(C)Cc1ccc(C(F)(F)F)cc1 | inactive | inactive | inactive |
| COc1ccc(NC(=O)Nc2ccc3c(c2)C(=O)N([C@@H](C)CO)C[C@H](C)[C@H](CN(C)C(=O)Nc2ccc4c(c2)OCO4)OCCCC[C@@H](C)O3)cc1 | inactive | inactive | inactive |
| O=C(C[C@@H]1C[C@@H]2c3cc(NC(=O)c4cccnc4)ccc3O[C@@H]2[C@@H](CO)O1)NCc1cc(F)ccc1F | inactive | inactive | inactive |
